# Some of the results follow.
# B1: GSL-I-B4 (Griffonia simplicifolia) (protein)
# chain: NFWSDVEDSIIFQGDANTTAGTLQLCKTNQYGTPLQWSAGRALYSDPVQLWDNKTESVASFYTEFTFFLKITGNGPADGLAFFLAPPDSDVKDAGEYLGLFNKSTATQPSKNQVVAVEFDTWTNPNFPEPSYRHIGINVNSIVSVATKRWEDSDIFSGKIATARISYDGSAEILTVVLSYPDGSDYILSHSVDMRQNLPESVRVGISASTGNNQFLTVYILSWRFSSNLQSTSVKAAMEPEITRTVV
# Key:
# Assay in all cases: glycan array binding signal (z-score within array); higher = stronger binding
# Conditions in all cases: glycan notation: IUPAC condensed, linker removed
# [1] = target: Gal(b1-3)GlcNAc(b1-3)Gal(b1-4)GlcNAc(b1-2)[Gal(b1-3)GlcNAc(b1-3)Gal(b1-4)GlcNAc(b1-6)]Man(a1-6)[Gal(b1-3)GlcNAc(b1-3)Gal(b1-4)GlcNAc(b1-2)Man(a1-3)]Man(b1-4)GlcNAc(b1-4)[Fuc(a1-6)]GlcNAc
# Summary of the method: (§1)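 Arrays were curated from the Consortium for Functional Glycomics database, 3228 in total, and kept only where the protein sequence was available. Binding is expressed as a within-array Z-score. This score was averaged across arrays of the same protein sequence at different concentrations or buffers and across linkers, and negative values can be read as non-binding.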
# [2] = target: Gal(b1-3)GlcNAc(b1-3)Gal(b1-4)GlcNAc(b1-3)Gal(b1-4)GlcNAc(b1-2)[Gal(b1-3)GlcNAc(b1-3)Gal(b1-4)GlcNAc(b1-3)Gal(b1-4)GlcNAc(b1-6)]Man(a1-6)[Gal(b1-3)GlcNAc(b1-3)Gal(b1-4)GlcNAc(b1-3)Gal(b1-4)GlcNAc(b1-2)Man(a1-3)]Man(b1-4)GlcNAc(b1-4)[Fuc(a1-6)]GlcNAc
# Summary of the method: as §1
# [3] = target: Gal(b1-3)GlcNAc(b1-3)Gal(b1-4)GlcNAc(b1-6)[Gal(b1-3)GlcNAc(b1-3)]Gal(b1-4)Glc
# Summary of the method: as §1
# [4] = target: Gal(b1-3)GlcNAc(b1-3)Gal(b1-4)[Fuc(a1-3)]GlcNAc
# Summary of the method: as §1
# [5] = target: Gal(b1-3)GlcNAc(b1-3)Gal(b1-4)[Fuc(a1-3)]GlcNAc(b1-6)[Gal(b1-3)GlcNAc(b1-3)]Gal(b1-4)Glc
# Summary of the method: as §1
# [6] = target: Gal(b1-3)GlcNAc(b1-3)GalNAc
# Summary of the method: as §1
# [7] = target: Gal(b1-3)GlcNAc(b1-6)Gal(b1-4)GlcNAc
# Summary of the method: as §1
# [8] = target: Gal(b1-3)GlcNAc(b1-6)GalNAc
# Summary of the method: as §1
# [9] = target: Gal(b1-3)GlcNAc(b1-6)[Gal(b1-3)]GalNAc
# Summary of the method: as §1
# Gal(b1-3)GlcNAc6S = target: Gal(b1-3)GlcNAc6S
# Summary of the method: as §1
# [10] = target: Gal(b1-3)[Fuc(a1-4)]GlcNAc
# Summary of the method: as §1
# [11] = target: Gal(b1-3)[Fuc(a1-4)]GlcNAc(b1-2)Man
# Summary of the method: as §1
# [12] = target: Gal(b1-3)[Fuc(a1-4)]GlcNAc(b1-2)Man(a1-3)[Gal(b1-3)[Fuc(a1-4)]GlcNAc(b1-2)Man(a1-6)]Man(b1-4)GlcNAc(b1-4)[Fuc(a1-6)]GlcNAc
# Summary of the method: as §1
# [13] = target: Gal(b1-3)[Fuc(a1-4)]GlcNAc(b1-3)Gal(b1-3)[Fuc(a1-4)]GlcNAc
# Summary of the method: as §1
# [14] = target: Gal(b1-3)[Fuc(a1-4)]GlcNAc(b1-3)Gal(b1-4)[Fuc(a1-3)]GlcNAc
# Summary of the method: as §1
# [15] = target: Gal(b1-3)[Fuc(a1-4)]GlcNAc(b1-6)GalNAc
# Summary of the method: as §1
# [16] = target: Gal(b1-3)[GlcNAc(b1-6)]GalNAc
# Summary of the method: as §1
# [17] = target: Gal(b1-3)[Neu5Ac(a2-6)]GalNAc
# Summary of the method: as §1
# [18] = target: Gal(b1-3)[Neu5Ac(a2-6)]GlcNAc(b1-4)Gal(b1-4)Glc
# Summary of the method: as §1
# [19] = target: Gal(b1-3)[Neu5Ac(b2-6)]GalNAc
# Summary of the method: as §1
# Gal(b1-4)Gal = target: Gal(b1-4)Gal
# Summary of the method: as §1
# [20] = target: Gal(b1-4)GalNAc(a1-3)[Fuc(a1-2)]Gal(b1-4)GlcNAc
# Summary of the method: as §1
# [21] = target: Gal(b1-4)GalNAc(b1-3)[Fuc(a1-2)]Gal(b1-4)GlcNAc
# Summary of the method: as §1
# Gal(b1-4)Glc = target: Gal(b1-4)Glc
# Summary of the method: as §1
# Gal(b1-4)Glc6S = target: Gal(b1-4)Glc6S
# Summary of the method: as §1
# Gal(b1-4)GlcNAc = target: Gal(b1-4)GlcNAc
# Summary of the method: as §1
# [22] = target: Gal(b1-4)GlcNAc(a1-6)Gal(b1-4)GlcNAc
# Summary of the method: as §1
# Gal(b1-4)GlcNAc(b1-2)Man = target: Gal(b1-4)GlcNAc(b1-2)Man
# Summary of the method: as §1
# [23] = target: Gal(b1-4)GlcNAc(b1-2)Man(a1-3)Man(b1-4)GlcNAc(b1-4)GlcNAc
# Summary of the method: as §1
# [24] = target: Gal(b1-4)GlcNAc(b1-2)Man(a1-3)[Gal(b1-4)GlcNAc(b1-2)Man(a1-6)]Man(b1-4)GlcNAc(b1-4)GlcNAc
# Summary of the method: as §1
# [25] = target: Gal(b1-4)GlcNAc(b1-2)Man(a1-3)[Gal(b1-4)GlcNAc(b1-2)Man(a1-6)]Man(b1-4)GlcNAc(b1-4)[Fuc(a1-6)]GlcNAc
# Summary of the method: as §1
# [26] = target: Gal(b1-4)GlcNAc(b1-2)Man(a1-3)[Gal(b1-4)GlcNAc(b1-2)Man(a1-6)][Gal(b1-4)GlcNAc(b1-4)]Man(b1-4)GlcNAc(b1-4)[Fuc(a1-6)]GlcNAc
# Summary of the method: as §1
# [27] = target: Gal(b1-4)GlcNAc(b1-2)Man(a1-3)[Gal(b1-4)GlcNAc(b1-2)Man(a1-6)][GlcNAc(b1-4)]Man(b1-4)GlcNAc(b1-4)[Fuc(a1-6)]GlcNAc
# Summary of the method: as §1
# [28] = target: Gal(b1-4)GlcNAc(b1-2)Man(a1-3)[GlcNAc(b1-2)Man(a1-6)]Man(b1-4)GlcNAc(b1-4)GlcNAc
# Summary of the method: as §1
# [29] = target: Gal(b1-4)GlcNAc(b1-2)Man(a1-3)[GlcNAc(b1-4)][Gal(b1-4)GlcNAc(b1-2)Man(a1-6)]Man(b1-4)GlcNAc(b1-4)GlcNAc
# Summary of the method: as §1
# [30] = target: Gal(b1-4)GlcNAc(b1-2)Man(a1-3)[Man(a1-6)]Man(b1-4)GlcNAc(b1-4)GlcNAc
# Summary of the method: as §1
# [31] = target: Gal(b1-4)GlcNAc(b1-2)Man(a1-6)Man(b1-4)GlcNAc(b1-4)GlcNAc
# Summary of the method: as §1
# [32] = target: Gal(b1-4)GlcNAc(b1-2)Man(a1-6)[GlcNAc(b1-2)Man(a1-3)]Man(b1-4)GlcNAc(b1-4)GlcNAc
# Summary of the method: as §1
binder,measurement,setting,value
B1,glycan array binding signal (z-score),[1],0.283
same,glycan array binding signal (z-score),[2],-0.001
same,glycan array binding signal (z-score),[3],-0.187
same,glycan array binding signal (z-score),[4],-0.177
same,glycan array binding signal (z-score),[5],-0.128
same,glycan array binding signal (z-score),[6],-0.18
same,glycan array binding signal (z-score),[7],-0.192
same,glycan array binding signal (z-score),[8],-0.164
same,glycan array binding signal (z-score),[9],-0.181
same,glycan array binding signal (z-score),Gal(b1-3)GlcNAc6S,-0.154
same,glycan array binding signal (z-score),[10],-0.161
same,glycan array binding signal (z-score),[11],-0.183
same,glycan array binding signal (z-score),[12],-0.133
same,glycan array binding signal (z-score),[13],-0.179
same,glycan array binding signal (z-score),[14],-0.163
same,glycan array binding signal (z-score),[15],-0.028
same,glycan array binding signal (z-score),[16],-0.205
same,glycan array binding signal (z-score),[17],-0.216
same,glycan array binding signal (z-score),[18],-0.183
same,glycan array binding signal (z-score),[19],-0.222
same,glycan array binding signal (z-score),Gal(b1-4)Gal,-0.146
same,glycan array binding signal (z-score),[20],-0.177
same,glycan array binding signal (z-score),[21],-0.194
same,glycan array binding signal (z-score),Gal(b1-4)Glc,-0.126
same,glycan array binding signal (z-score),Gal(b1-4)Glc6S,-0.14
same,glycan array binding signal (z-score),Gal(b1-4)GlcNAc,-0.16
same,glycan array binding signal (z-score),[22],-0.154
same,glycan array binding signal (z-score),Gal(b1-4)GlcNAc(b1-2)Man,-0.161
same,glycan array binding signal (z-score),[23],-0.182
same,glycan array binding signal (z-score),[24],-0.168
same,glycan array binding signal (z-score),[25],-0.129
same,glycan array binding signal (z-score),[26],-0.172
same,glycan array binding signal (z-score),[27],-0.134
same,glycan array binding signal (z-score),[28],-0.21
same,glycan array binding signal (z-score),[29],-0.15
same,glycan array binding signal (z-score),[30],-0.116
same,glycan array binding signal (z-score),[31],-0.205
same,glycan array binding signal (z-score),[32],-0.159
